Assay results published in the supplement of paper PMC10441789.
Some of the results follow. Antibody binding of pooled human sera (four to six donors per pool; dilution not stated) to peptides of the Trypanosoma cruzi antigen TSSA on microarrays. Quantile-normalised fluorescence in arbitrary units, mean of duplicate arrays; higher = more binding. No active / inactive call. The uninfected pools are read here as the healthy donors of the same country. The strongest signals lie near the top of the scale (about 60,000).

Key:
Assay in all cases: antibody binding signal (normalised fluorescence) (arbitrary fluorescence units); higher = stronger serum antibody binding to peptide
[1] = test system: pooled sera of chronic Chagas disease patients, Argentina
Experimental: (§1)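 Microarray of overlapping 15-residue peptides of the four Trypanosoma cruzi TSSA reference variants and 8- to 13-residue peptides of TSSAII 24-62, probed with one serum pool per country.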

[2] = test system: pooled sera of chronic Chagas disease patients, Bolivia
Experimental: as §1

[3] = test system: pooled sera of chronic Chagas disease patients, Brazil
Experimental: as §1

[4] = test system: pooled sera of chronic Chagas disease patients, Colombia
Experimental: as §1

[5] = test system: pooled sera of chronic Chagas disease patients, Mexico
Experimental: as §1

[6] = test system: pooled sera of chronic Chagas disease patients, USA
Experimental: as §1

[7] = test system: pooled sera of uninfected people, Argentina
Experimental: as §1

[8] = test system: pooled sera of uninfected people, Bolivia
Experimental: as §1

[9] = test system: pooled sera of uninfected people, Colombia
Experimental: as §1

[10] = test system: pooled sera of uninfected people, Mexico
Experimental: as §1

[11] = test system: pooled sera of uninfected people, USA
Experimental: as §1

| Sequence | antibody binding signal [1] | antibody binding signal [2] | antibody binding signal [3] | antibody binding signal [4] | antibody binding signal [5] | antibody binding signal [6] | antibody binding signal [7] | antibody binding signal [8] | antibody binding signal [9] | antibody binding signal [10] | antibody binding signal [11] |
| --- | --- | --- | --- | --- | --- | --- | --- | --- | --- | --- | --- |
| SACTTANGGSTISTP | 121 | 194 | 228 | 109 | 98.2 | 113 | 417 | 156 | 351 | 110 | 92.9 |
| EKKAAAGEAPSPSGA | 3120 | 180 | 2080 | 462 | 479 | 10500 | 233 | 1040 | 92.8 | 162 | 830 |
| AGGTPSPSGASSGEA | 302 | 282 | 3780 | 441 | 746 | 197 | 182 | 148 | 186 | 128 | 289 |
| AAGGTPSPSGASSGE | 284 | 273 | 3130 | 1010 | 2000 | 262 | 234 | 140 | 566 | 109 | 303 |
| GEAPSQPGA | 6760 | 27600 | 13000 | 110 | 155 | 1680 | 199 | 171 | 251 | 261 | 204 |
| TSSTPPSG | 290 | 345 | 264 | 265 | 245 | 149 | 158 | 138 | 69.2 | 138 | 130 |
| ANGGSTSSTPPSG | 1440 | 4360 | 1280 | 2330 | 1310 | 2350 | 312 | 501 | 189 | 451 | 351 |
| STSSTPPS | 208 | 260 | 307 | 505 | 145 | 137 | 232 | 184 | 111 | 216 | 118 |
| NKPATGEAP | 45400 | 47800 | 46600 | 477 | 386 | 40300 | 926 | 755 | 210 | 270 | 154 |
| GEAPSQPGASSGE | 8070 | 35800 | 13400 | 111 | 97.5 | 1350 | 337 | 91.4 | 79.3 | 125 | 77.4 |
| SQPGASSG | 2020 | 205 | 464 | 150 | 202 | 300 | 178 | 152 | 118 | 316 | 286 |
| KAAAGEAPSPSGASS | 197 | 344 | 5640 | 370 | 2130 | 6380 | 240 | 181 | 76.5 | 90 | 198 |
| AAAGEAPSPSGASSG | 453 | 355 | 1250 | 1470 | 1390 | 211 | 153 | 139 | 148 | 166 | 389 |
| TISTPPSGTDKKTAA | 34800 | 5230 | 33400 | 7340 | 41600 | 3810 | 1290 | 123 | 169 | 951 | 326 |
| GTENKPATGE | 36200 | 28100 | 35000 | 1840 | 2580 | 22000 | 564 | 1610 | 130 | 185 | 142 |
| QPGASSGE | 1370 | 135 | 9110 | 86 | 121 | 103 | 78.4 | 97 | 93.8 | 250 | 105 |
| GSTSSTPPSGT | 291 | 259 | 603 | 208 | 271 | 141 | 206 | 208 | 115 | 150 | 83.6 |
| GASSGEAEASSNKND | 213 | 1420 | 3060 | 553 | 1170 | 937 | 221 | 315 | 176 | 1700 | 871 |
| TENKPATGEAP | 48700 | 42600 | 45700 | 348 | 629 | 43000 | 1070 | 894 | 167 | 232 | 228 |
| APSQPGASS | 963 | 1340 | 446 | 586 | 11900 | 252 | 172 | 318 | 303 | 3630 | 275 |
| CTTANGGSTSSTPPG | 564 | 709 | 1770 | 270 | 207 | 248 | 226 | 254 | 675 | 212 | 200 |
